Measured values taken from publication PMC4336329 (PLoS ONE, 2015).
The whole screen tested about 310,000 compounds, of which about 2,200 (0.71%) showed an effect of 50% or more. Effects have a minus sign here. Some of the results follow.

target: human ether-à-go-go-related gene (hERG) potassium channel (human, UniProt Q12809); assay: primary screen, population patch clamp on CHO cells stably expressing hERG
Sequence (Q12809 whole entry, looked up): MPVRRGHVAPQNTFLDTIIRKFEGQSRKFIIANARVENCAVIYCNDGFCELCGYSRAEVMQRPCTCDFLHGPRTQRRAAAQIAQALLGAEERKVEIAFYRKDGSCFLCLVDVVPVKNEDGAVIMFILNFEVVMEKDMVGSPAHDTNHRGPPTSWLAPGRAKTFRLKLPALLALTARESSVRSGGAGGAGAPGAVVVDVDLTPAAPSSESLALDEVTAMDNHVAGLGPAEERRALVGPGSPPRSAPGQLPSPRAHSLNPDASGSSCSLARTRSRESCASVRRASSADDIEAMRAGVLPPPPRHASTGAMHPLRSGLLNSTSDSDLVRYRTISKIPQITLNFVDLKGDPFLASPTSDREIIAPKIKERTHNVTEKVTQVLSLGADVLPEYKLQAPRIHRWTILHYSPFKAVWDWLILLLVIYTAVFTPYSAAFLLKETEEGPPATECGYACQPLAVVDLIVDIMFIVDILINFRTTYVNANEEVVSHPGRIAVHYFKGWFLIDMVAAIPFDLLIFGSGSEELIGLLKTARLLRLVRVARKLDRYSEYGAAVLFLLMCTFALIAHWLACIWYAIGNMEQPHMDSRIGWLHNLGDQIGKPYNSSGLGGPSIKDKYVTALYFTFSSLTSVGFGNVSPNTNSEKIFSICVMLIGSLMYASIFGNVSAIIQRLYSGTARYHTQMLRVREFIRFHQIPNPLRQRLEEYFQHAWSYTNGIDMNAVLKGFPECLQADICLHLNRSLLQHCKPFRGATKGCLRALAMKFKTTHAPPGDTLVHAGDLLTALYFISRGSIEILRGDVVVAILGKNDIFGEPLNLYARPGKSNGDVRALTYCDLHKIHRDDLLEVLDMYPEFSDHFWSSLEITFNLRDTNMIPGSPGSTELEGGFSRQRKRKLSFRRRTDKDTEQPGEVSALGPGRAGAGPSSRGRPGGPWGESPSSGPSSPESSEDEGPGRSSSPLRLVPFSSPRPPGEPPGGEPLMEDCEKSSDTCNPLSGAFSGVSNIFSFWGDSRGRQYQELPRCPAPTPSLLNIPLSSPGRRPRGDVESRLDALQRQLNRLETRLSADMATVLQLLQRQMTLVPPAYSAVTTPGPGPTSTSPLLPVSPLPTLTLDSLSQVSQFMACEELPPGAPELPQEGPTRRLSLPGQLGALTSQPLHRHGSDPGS

Point of comparison: `O=C(NC1CCCC1)C(c1ccccc1)N(Cc1ccc(F)cc1)C(=O)c1csnn1` (stereo not drawn), “hERG current change (%, negative = inhibition) at 1uM” value 0.348%. Against it:
- CCOC(=O)c1cc(OC(=O)c2cccnc2)n(-c2ccccc2)n1 — higher, 6.35%
- CCOC(=O)C1C(=O)CC(C)(O)C(C(=O)OCC)C1c1ccccc1OC (stereo not drawn) — higher, 8.66%
- CCN1CCCC1CNC(=O)C1c2cc(OC)c(OC)cc2C(=O)N(C)C1c1cccnc1 (stereo not drawn) — higher, 5.93%
- CSCCC(N=Cc1c(O)n(-c2ccc(F)cc2)c(=O)[nH]c1=O)C(=O)OC(C)(C)C (stereo not drawn) — lower, -4.02%
- COc1ccc2[nH]cc(CCNS(=O)(=O)c3ccccc3)c2c1 — higher, 12.7%
- Cc1cccc(-c2nc(Nc3ccc(N4CCOCC4)cc3)c3ccccc3n2)c1 — higher, 17.9%
- O=C1CC(c2ccco2)CC(O)=C1C=NCCO (stereo not drawn) — higher, 12.9%
- Cc1cccc(C)c1NC(=O)CN(C)CC(=O)Nc1ccccc1Oc1ccccc1 — higher, 15.5%
- CCCN1CCC(NC2CCC(O)CC2)CC1 (stereo not drawn) — higher, 5.19%
- Cc1ccc(CNS(=O)(=O)c2c(C)n(C)c(=O)n(C)c2=O)cc1 — higher, 11.3%
- COc1ccc2c(c1)CCNC2Cc1ccc(OC)c(O)c1 (stereo not drawn) — higher, 8.46%
- CS(=O)(=O)c1ccc2nc(NC(=O)c3ccccc3Br)sc2c1 — higher, 6.45%
- COc1cccc(OCc2nc(-c3cccc([N+](=O)[O-])c3)no2)c1 — higher, 12.3%
- CCc1noc(C)c1C(=O)N1CCC(CCC(=O)Nc2cccc(OC)c2)CC1 — higher, 4.89%
- Cc1cnn(-c2nc(-c3cccs3)cc(C(F)(F)F)n2)c1 — higher, 5.88%
- Cc1sc2ncnc(N3CCC(C(=O)Nc4nnc(SCc5ccccc5F)s4)CC3)c2c1C — higher, 10.3%
- Cc1cc(=O)nc2c3ccccc3n(CC(=O)Nc3ccccc3Br)n12 — lower, -0.905%
- COc1ccc(S(=O)(=O)n2cccc2)cc1OC — higher, 11.1%
- NC(=O)CSc1oc(-c2ccco2)nc1S(=O)(=O)c1ccccc1 — lower, -9.51%
- CN1C(=O)/C(=C2\SC(=S)N(CCCCCC(=O)O)C2=O)c2ccccc21 — higher, 7.08%
- CCCC1=C(C(=O)OCC)C(c2ccco2)C(C#N)=C(N)O1 (stereo not drawn) — higher, 4.38%
- CCCSc1nnc2nc(C)cc(C)n12 — higher, 6.16%
- CCOC(=O)c1c(C)[nH]c(C(=O)OCC(=O)NCCc2ccc(OCC)c(OCC)c2)c1C — higher, 25.4%
- Cc1ccnc(NS(=O)(=O)c2ccc(NC(=O)Cc3ccccc3)cc2)n1 — higher, 8.81%
- Cc1sc2nc(CN3CCOCC3)nc(N3CCN(S(=O)(=O)c4ccccc4)CC3)c2c1C — lower, -0.853%
- Cc1cc(O)ccc1NC(=S)NC(=O)c1cncc(Br)c1 — higher, 14.5%
- Cn1c(Cl)c(/C=N/OC(=O)c2ccc(Cl)cc2)c2ccccc21 — higher, 4.72%
- Cc1cc(C)c(OCC(=O)Nc2ccc3c(c2)OCO3)cc1C — higher, 4.3%
- CCOC(=O)c1c(NC(=S)NC)sc2c1CCCC2 — higher, 11.1%
- CCC(C)NC(=O)CN1C(=O)CSc2ccc(S(=O)(=O)N3CCCC3)cc21 (stereo not drawn) — higher, 15.8%
- COc1ccc(C(=O)C2CCN(CC(=O)Nc3ccc(C)cc3)CC2)cc1 — lower, -22.8%
- CCC(C)c1ccc(NC(=O)COC(=O)C2=COCCO2)cc1 (stereo not drawn) — higher, 9.09%
- O=C(NNC1CC(=O)N(c2ccccc2)C1=O)c1ccccc1Cl (stereo not drawn) — higher, 11.1%
- COc1ccc(N(CC(=O)NCc2ccccc2)C(=O)CCC(=O)Nc2cc(C)ccn2)c(OC)c1 — lower, -18.4%
- CCOC(=O)N1CCN(C(=O)CN(Cc2ccc(Cl)cc2)S(=O)(=O)c2ccccc2)CC1 — lower, -15.1%
- O=C(Cc1ccc([N+](=O)[O-])cc1)N/N=C/c1cccs1 — higher, 8.54%
- CC(C)(C)n1nc2c(c1NC(=O)c1ccc(Br)cc1)CS(=O)C2 (stereo not drawn) — higher, 0.972%
- O=C(NCc1nnc(SCC(=O)N2CCOCC2)o1)c1c(F)cccc1Cl — higher, 8.25%
- CCCN(Cc1nc(-c2ccc(Cl)cc2)no1)CC1CCCO1 (stereo not drawn) — higher, 4.92%
- C[C@@H]1NC(=O)[C@H](CCC(N)=O)NC(=O)c2cc([N+](=O)[O-])cc(I)c2NCC[C@@H](C(N)=O)NC1=O — higher, 9.61%
- C[C@@H]1NC(=O)[C@H](CCCN=C(N)N)NC(=O)c2cc([N+](=O)[O-])cc(I)c2NCCC[C@@H](C(N)=O)NC1=O — higher, 10.4%
- CCOc1ccc(C(=O)N2CCN(CC(=O)N3CCCC3)CC2)cc1OCC — higher, 1.47%
- CS(=O)(=O)N(CC(=O)N1CCCCC1)c1cccc(F)c1 — higher, 13.4%
- COCCCNc1nc2ccccc2nc1NS(=O)(=O)c1cccc(Cl)c1 — higher, 32.8%
- CCC(C)C(NC(=O)OCc1ccccc1)C(=O)OCN1C(=O)c2ccccc2C1=O (stereo not drawn) — higher, 7.99%
- Cc1ccc(/C=C2/NC(=O)N(Cc3ccc(Br)cc3)C2=O)o1 — higher, 1.44%
- O=c1c(-c2ccc(O)cc2)coc2c(C3O[C@H](CO)[C@@H](O)[C@H](O)[C@H]3O)c(O)ccc12 (stereo partly drawn) — higher, 18.3%
- Cc1cc(=O)oc(C)c1C(=O)Nc1ccc2nsnc2c1 — higher, 14.5%
- CCOC(=O)C(C)Sc1ccc2nnc(CCNS(=O)(=O)c3ccc(C)cc3)n2n1 (stereo not drawn) — higher, 6.57%
- COc1ccc(Cn2c(/C=C/c3ccccc3)nc3ccccc32)cc1 — higher, 4.99%
- CCCCc1c(O)c2ccccc2[nH]c1=O — higher, 10%
- COc1ccc(/C=N/NC(=O)c2cc(C3CC3)[nH]n2)cc1OC — higher, 5.75%
- Cc1onc(-c2ccccc2)c1C(=O)N1CCN(c2ccccn2)CC1 — higher, 11.2%
- CCCCc1cc(=O)oc2cc(C)cc(OC(C)C(=O)O)c12 (stereo not drawn) — higher, 15.5%
- CCC(C)n1[nH]c(=O)cc1N (stereo not drawn) — higher, 14.7%
- CCOC(=O)c1ccc(NC(=O)Nc2ccc(S(N)(=O)=O)cc2)cc1 — higher, 6.06%
- Cn1c(=O)[nH]c(=O)c2c1nc(N/N=C/C(Br)=C/c1ccccc1)n2CCO — higher, 14.2%
- CCc1ccc(CC)c(S(=O)(=O)Nc2ccc(C(=O)O)c(O)c2)c1 — higher, 14.8%
- Cc1cc(C(=O)NNC(=O)CCN2CCN(c3ccccc3)CC2)c2ccccc2n1 — higher, 0.983%
- C#CCOCCOCCOCCNc1nc(N2CCN(C(=O)[C@H]([C@@H](C)CC)n3cc([C@@H](N)Cc4ccc(O)cc4)nn3)CC2)nc(N2CCN(C(=O)[C@H](Cc3ccc(O)cc3)n3cc([C@@H](N)C(C)CC)nn3)CC2)n1.Cl (stereo partly drawn) — lower, -0.72%
- COc1ccc(COC(=O)CN2C(=O)NC3(CCCC3)C2=O)cc1F — higher, 7.47%
- O=C(Nc1nnc(-c2ccco2)s1)C1CC1 — lower, -4.4%
- CC1(C)CC(=O)C(C=NCC2CCN(C(=S)Nc3ccccc3)CC2)=C(O)C1 — higher, 11.2%
- COc1cc2c(cc1OC)C(C(=O)NCc1cccnc1)C(c1cccnc1)N(C)C2=O (stereo not drawn) — higher, 9.12%
- COCCNC(=O)C(=O)NCC1OCCN1S(=O)(=O)c1ccc(C)cc1 (stereo not drawn) — higher, 13.2%
- O=C(COC(=O)CCNS(=O)(=O)c1ccccc1)NC(=O)Cc1ccccc1 — higher, 5.79%
- CCc1ccccc1NNC(=O)CCc1ccccc1 — higher, 13.2%
- c1ccc(-c2nccnc2-c2ccccc2)cc1 — higher, 9.96%
- Nc1nc(C2CC2)c(Sc2sc(N)nc2C2CC2)s1 — higher, 7.71%
- COc1cc(-c2noc(C)c2C#CCO)cc(OC)c1OC — higher, 11.4%
- CCOC(=O)OC(C)OC1=C(C(=O)Nc2ccccn2)N(C)S(=O)(=O)c2ccccc21 (stereo not drawn) — higher, 16.6%
- CC(=O)Nc1ccc(C(=O)OCCC(C)C)cc1 — higher, 6.1%
- COCc1n[nH]c(=S)n1-c1cccc2ccccc12 — higher, 14.6%
- Cc1ccc2nc(Nc3ncc4c(n3)CC(C)(C)CC4=O)nc(C)c2c1 — higher, 11.2%
- COC(=O)C1=C(c2ccccc2)C[C@@H]2CC[C@H]1N2C(=O)NC(C)C — higher, 11.4%
- CO/N=C/C1CCN(c2ncc(C(F)(F)F)cc2Cl)C1=O (stereo not drawn) — higher, 8.53%
- O=C(/C=C/c1ccccc1)NNC(=O)c1cccc(Cl)c1 — higher, 3.65%
- CCc1cccc(CC)c1NC(=O)COC(=O)CC1c2ccccc2CCN1S(=O)(=O)c1ccc(F)cc1 (stereo not drawn) — higher, 5.93%
- Cc1ccc(S(=O)(=O)Nc2ccc(-c3nc4ccc(C)cc4s3)cc2)cc1 — higher, 9.47%
- O=C(CSc1nc2sccc2c(=O)[nH]1)N1CCN(c2ccccc2)CC1 — higher, 13.4%
- CC(=O)CCc1oc2c([N+](=O)[O-])cccc2c1-c1ccc(C)o1 — higher, 15.7%
- S=c1[nH]nc(Cn2cnc3ccccc32)n1-c1ccccc1 — higher, 16.4%
- COc1ccc(-c2cc(C(F)(F)F)nc(-n3cc(Cl)cn3)n2)cc1 — higher, 5.11%
- O=C(O)CCCC(=O)N1N=C(c2ccccc2)CC1c1ccc2c(c1)OCO2 (stereo not drawn) — higher, 21.1%
- CC(=NCCCNC1CCCCC1)C1=C(O)CC(C)(C)CC1=O — higher, 11.9%
- CCOc1ccc(Cl)cc1CNCCNCC(C)O.Cl (stereo not drawn) — higher, 5.22%
